# The full ranking holds about 33,000 sequences; the median of “E-score (-0.5 to 0.5)” is about -0.017, and the highest 2% start at about 0.3. Some of the results follow.
# Target: T1, Sut1 (UniProt P53032)
# T1 sequence: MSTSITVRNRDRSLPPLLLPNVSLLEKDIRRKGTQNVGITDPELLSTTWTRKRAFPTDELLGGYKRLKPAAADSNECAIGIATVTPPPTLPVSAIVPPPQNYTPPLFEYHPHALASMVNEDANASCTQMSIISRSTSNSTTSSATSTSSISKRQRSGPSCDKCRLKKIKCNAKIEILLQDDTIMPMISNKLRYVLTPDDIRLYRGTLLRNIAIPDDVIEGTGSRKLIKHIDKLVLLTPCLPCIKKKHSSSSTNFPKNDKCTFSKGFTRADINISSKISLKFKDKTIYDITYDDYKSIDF
# Experiment: PBM E-score (8-mer binding enrichment) (E-score (-0.5 to 0.5)); higher = stronger / more preferred TF binding; most listed sequences are background and not binding sites
# Settings: protein concentration: 200 nM; construct: GST-full length
# How it was run: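 GST-tagged yeast TFs (full-length or DNA-binding domain) were made by PURExpress in vitro transcription/translation and applied at about 100-200 nM to universal all-10-mer Agilent arrays. The arrays were made double-stranded by primer extension, on fresh or once-stripped slides. Bound protein was detected with fluorescent anti-GST, and scans were normalised with masliner. Each ungapped eight-base word, pooled with its reverse complement, received an E-score (modified Wilcoxon-Mann-Whitney statistic) from the Universal PBM Analysis Suite.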
row,Sequence,PBM E-score
1,TAACGGTA,0.00821
2,GGGTCCGA,0.295
3,CATCGCTC,-0.19
4,CCTAACAA,0.102
5,CAGGCTGC,-0.129
6,GTATTAAA,0.236
7,TAGGTAGA,-0.00102
8,AAGTAAAG,0.139
9,CCTTCAAA,0.163
10,ATTCCCAG,-0.0741
11,GTACTCAC,-0.0386
12,TTGTCAAA,0.152
13,AACCTTCG,0.144
14,CTGGCGAC,-0.269
15,AACCGTCA,-0.0173
16,GCAAATAA,0.257
17,ATATGCTA,0.0969
18,CGTCTCTA,-0.0494
19,CCTCCCAA,-0.281
20,CAAATTGC,0.0275
21,GGAGGAGA,-0.313
22,GAACTAGA,0.15
23,ACGCTGCT,-0.116
24,CTTGAATA,0.0931
25,AGCAATGG,-0.0356

row,Sequence,PBM E-score
1,GCTTCTAC,0.21
2,AGGACAGA,-0.112
3,GACCAGTC,-0.0905
4,ATGGTGAG,-0.213
5,ACTAGCAC,-0.161
6,CCGGTGAC,0.211
7,ATTTTATA,0.276
8,AGTTGTAA,0.194
9,CTCCGATA,0.432
10,CTAGACGA,-0.143
11,ATAGTTTA,0.102
12,AGTACGGC,-0.0481
13,GCTTGAGA,-0.159
14,AGACTGGG,0.00426
15,ACACCGGG,0.0688
16,CTATGGAG,0.0304
17,TATTCTGA,-0.0371
18,AAGTTTAC,0.108
19,GATGACCC,-0.122
20,ACTCGAAC,-0.0124
21,AGACTGCG,-0.174
22,GAATTGCA,0.0925
23,CCAGCTCC,0.185
24,ATACCTAC,0.0855
25,AGTATGTA,0.0786

row,Sequence,PBM E-score
1,CCATACGA,-0.023
2,ACAATCTG,0.123
3,ATCAAGTA,0.126
4,TAGTAAAA,0.268
5,TATCCTAA,0.156
6,AAGCAGTC,-0.152
7,CGACTGTA,-0.196
8,ACACCGGC,0.0168
9,CTTCACTA,0.252
10,TAGTGCCA,-0.281
11,ACCGAGGA,0.015
12,ACGCTAGA,-0.129
13,GGGAAAGA,0.00082
14,TAAAGATA,0.276
15,GGGTGCAA,-0.0357
16,AAAGACTT,0.0016
17,ACTGAGCT,0.0348
18,CTGAGATA,0.193
19,GTCAATGA,-0.158
20,AAAATGCG,0.104
21,CAAGGCGC,-0.0735
22,AGTCGTCC,-0.11
23,AAGCATAC,0.164
24,ACTGCCAC,-0.161
25,GGAGCATA,0.0974

row,Sequence,PBM E-score
1,GTTTTCAA,0.222
2,ACTTGGTC,0.183
3,ACTATGGG,-0.155
4,CACCGTTC,-0.0932
5,CCGCCACG,-0.0608
6,ATCATGGC,-0.0732
7,ACATGTCG,-0.0156
8,GGCGCTGA,-0.0911
9,AATCGTTA,0.141
10,ATATGCCC,-0.19
11,TCCACGGA,0.268
12,ATAGGAAG,-0.0472
13,ATGCCAGG,-0.214
14,AGGAACTA,0.00457
15,CGTGATCA,-0.101
16,ACTGAGGG,-0.268
17,CTATCATC,0.0847
18,CGGTCCAA,-0.113
19,ATAAAGCA,0.114
20,ATATCAAG,0.247
21,CCCCTGAG,-0.303
22,AGATGTAA,0.154
23,CATACAGG,0.111
24,CTCGCAGC,-0.165
25,CGACATAA,0.164

row,Sequence,PBM E-score
1,GAAGTTGC,-0.0944
2,AGCTATAC,-0.0483
3,ACCGATGG,-0.0629
4,ACGTGTTG,-0.00182
5,CGTCCCAG,-0.242
6,GTAGGCCA,-0.129
7,CAGTGGCG,-0.211
8,AGATGCTC,0.0658
9,CGCATGCC,0.00842
10,CACGATCA,0.0539
11,ACCTGCGG,-0.0399
12,AGGTACTC,0.103
13,ATGGCTCA,-0.166
14,AATGTCCT,-0.0934
15,AGCTGAAA,0.205
16,AGACCTCA,-0.176
17,AACCTGAC,-0.0838
18,AGGACTCA,-0.114
19,GACGACTC,-0.128
20,CCCAACGA,-0.175
21,ACCTTAGT,0.0269
22,CCAACGCA,-0.0662
23,TAAGCAGA,-0.025
24,ACTCGTGC,0.0028
25,AGTCGGCG,0.0144

row,Sequence,PBM E-score
1,GAAGTTTA,0.319
2,GAGGGATC,-0.446
3,CCCAGGGC,-0.323
4,GGTCAAAA,-0.0216
5,CATGGCTC,-0.0594
6,CATGTGAA,-0.0622
7,CCAATGTC,-0.0534
8,ACCGGACC,0.364
9,AAAAGGAA,0.227
10,GGGCCAAC,-0.129
11,CTTTGGCA,-0.273
12,AACAGGAT,-0.268
13,CTACCTAA,0.00881
14,GGAATGTA,0.271
15,GACTCTGC,-0.116
16,AAAACTAC,0.292
17,AGCTGGAC,-0.0896
18,ACCGACCT,-0.17
19,CCCTAGTA,-0.126
20,CTCCACGC,-0.169
21,CGCTCGAG,0.07
22,AGGGTGGC,-0.163
23,GCGTCCCC,-0.231
24,CATGGTGA,-0.101
25,ACTCGCCT,-0.167

row,Sequence,PBM E-score
1,CTACTCCA,0.0836
2,GACTGAGA,0.0525
3,GCTACTTA,-0.00021
4,ATGGCGTA,-0.14
5,ACTAACGG,0.167
6,GATAACAA,0.205
7,GATGGCCC,-0.352
8,GAAGACTA,0.0633
9,AACCTAAT,0.0281
10,AAGCCAGA,0.0326
11,CTGCCTGA,-0.0674
12,AATATGAA,0.19
13,ATTCCGCG,0.18
14,ACTACCGA,-0.114
15,GTATCGGA,0.281
16,ACACGAAT,0.138
17,CAGCTCGG,-0.0612
18,GTAGAATA,0.198
19,GGACGCAC,-0.205
20,CTAGCAAC,0.0225
21,ACGTGACG,-0.0786
22,TCCACGCA,0.0378
